# Out of some 43,000 compounds screened, about 200 (0.47%) were called active. Inconclusive results, whose numbers are uncertain, are shown with a selection of clear calls. The call rests on the fitted dose curve; in most records, active means well fitted cell-killing curve with a large enough effect; inconclusive means small, poorly fitted or top-dose-only effect, or effect the other way; inactive means flat fitted curve, though single readings scatter. Potencies beside an inconclusive call are fits to weak or partial responses and may not hold up.
# Test: Cell viability qHTS assay in S16 Pmp22-F2sN cells; further: nearly all actives have a fitted effect of over 65% in size
# Conditions: S16 Pmp22-F2sN Schwann cells (luciferase reporters placed in the Pmp22 gene) viability, CellTiter-Glo, 24 h; activity change, negative = cytotoxicity: at 57.5 µM (top of the series)
# Procedure, shortened: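 CellTiter-Glo counter-screen, qHTS, 1536-well. Cells: S16(c9) Pmp22-F2sN, 500-1,000/well in DMEM + 10% FBS. Cpd 23 nL pin transfer, 24 h, 37C/5% CO2. Read: luminescence, CCD imager.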
# On the % scale 0 is the no-effect control and ±100 the full control effect; potency means the concentration at half of the fitted maximal effect; tags describe the fitted curve by direction and shape.
Compound,Potency,"activity change, negative = cytotoxicity"
Cc1ccc(NC(=O)c2ccc(CNS(=O)(=O)c3ccc4c(c3)C(C)(C)C(=O)N4C)cc2)cc1F,inactive,–
COc1ccc(/C=C/C(=O)Nc2ccc3nc4c(c(Nc5ccc(OC)c(OC)c5)c3c2)CCCC4)cc1,"inconclusive: 39.8 µM [cytotoxic, single point]",–
Cn1nc(-c2ccccc2F)c2cc(C(=O)NCc3cccc(Cl)c3)sc21,"inconclusive: 39.8 µM [cytotoxic, partial curve, poor fit]",–
Cc1nc(-c2cccc(S(=O)(=O)N3CCC(C(=O)NCc4ccccc4Cl)CC3)c2)no1,"inconclusive: 17.8 µM [cytotoxic, partial curve, poor fit]",–
O=C(c1cc2c(s1)-c1ccccc1OC2)N1CCN(c2ccc(F)cc2)CC1,–,inconclusive: -30.7% [cytotoxic]
COc1cc2c(cc1NC(=O)COc1ccc(Cl)cc1)oc1ccccc12,"inconclusive: 35.5 µM [cytotoxic, single point]",–
CC(=O)Nc1ccc(C(=O)Nc2ccc3c(c2)N(C2CCCC2)C(=O)c2ccccc2S3)cc1,"inconclusive: 17.8 µM [cytotoxic, partial curve]",–
COc1cc(Cl)c(C)cc1NC(=O)Cn1c(C)c2cnn(-c3ccccc3)c(=O)c2c1C,inactive,–
O=C(Nc1cc(F)ccc1F)c1ccc(CN2CC(=O)N3CCCCC3C2=O)cc1 (stereo not given),inactive,–
Cc1cc(C)cc(-n2c(SCC(=O)N3CCCCCC3)nc3c([nH]c4ccccc43)c2=O)c1,inactive,–
CCS(=O)(=O)c1ncc(Cl)c(C(=O)NCc2ccccc2)n1,"inconclusive: 28.2 µM [cytotoxic, partial curve, poor fit]",–
Cc1cc(-c2ccc(C)c(S(=O)(=O)NCc3cccs3)c2)on1,"inconclusive: 35.5 µM [cytotoxic, single point]",–
Cc1ccc2oc(-c3cc(NC(=O)c4oc5ccccc5c4C)ccc3Cl)nc2c1,"inconclusive: 0.178 µM [cytotoxic, partial curve, poor fit]",–
COc1ccc(CNC(=O)C2CCCN(c3nnc(C)c4c(C)n(-c5ccc(C)cc5)nc34)C2)cc1 (stereo not given),"inconclusive: 39.8 µM [cytotoxic, single point]",–
CCC1CN(C(=O)N2CCC(C(=O)N3CCN(c4ccccc4F)CC3)CC2)c2ccccc2O1 (stereo not given),"inconclusive: 25.1 µM [cytotoxic, single point]",–
CCc1ccc(OCC(=O)Nc2ncn[nH]2)c(Br)c1,inactive,–
COc1cccc(-c2noc(-c3cc(C(C)C)[nH]n3)n2)c1OC,inactive,–
Cc1cc2c(cc3c(SCC(=O)Nc4ccc(Cl)cc4F)nncn32)o1,inactive,–
O=C(NCCn1cc(SCc2ccc(F)cc2)c2ccccc21)c1cccs1,inactive,–
Cc1ccc(Nc2sc(C(=O)c3ccccc3)c(N)c2C(N)=O)cc1,"inconclusive: 39.8 µM [rising, single point]",–

Compound,Potency,"activity change, negative = cytotoxicity"
Cc1c(C(=O)Nc2ccccc2Cl)oc2ccc(S(=O)(=O)N3CCCCC3)cc12,inactive,–
COc1ccc(Cn2c(C(=O)O)c(CNCc3ccc(SC)cc3)c3ccc(OC)cc32)cc1,"inconclusive: 11.2 µM [cytotoxic, partial curve]",–
COc1ccc(OC)c(S(=O)(=O)NCC(c2cccs2)S(=O)(=O)c2ccc(F)cc2)c1 (stereo not given),"inconclusive: 22.4 µM [cytotoxic, single point]",–
COC(=O)c1ccccc1NC(=O)CSc1nc(C)c(Cl)c(C)c1C#N,"inconclusive: 8.91 µM [cytotoxic, full curve]",–
O=C(Cn1ncc2c3ccccc3n(Cc3ccc(F)cc3)c2c1=O)NCc1ccccn1,"inconclusive: 31.6 µM [cytotoxic, partial curve, poor fit]",–
Cc1ccc(CN2CCSc3ccc(C(=O)Nc4ccc(C)cc4)cc32)cc1,"inconclusive: 39.8 µM [cytotoxic, single point]",–
CCOC(=O)CNC(c1ccccc1)c1cc(Br)ccc1NC(=O)c1cccc(Cl)c1 (stereo not given),"inconclusive: 6.31 µM [rising, single point]",–
CCOC(=O)c1cc(-c2ccccc2)n(CC(=O)Nc2ccc(CC)cc2)c1C,"inconclusive: 31.6 µM [cytotoxic, single point]",–
O=C(Nc1cc(-c2ccccc2F)nn1-c1ccccc1)c1ccccc1Br,"inconclusive: 3.55 µM [cytotoxic, full curve, poor fit]",–
O=C(COc1ccccc1F)Nc1c(C(=O)Nc2cccc(F)c2)oc2ccccc12,"inconclusive: 1 µM [rising, full curve, poor fit]",–
COc1ccc(Cn2c(=O)n(-c3ccc(OC)cc3)c(=O)c3c2c2cc(OC)ccc2n3C)cc1,inactive,–
CCc1ccc(NC(=O)C(=O)NCC(c2cccnc2)N2CCc3ccccc3C2)cc1 (stereo not given),"inconclusive: 28.2 µM [cytotoxic, single point]",–
COc1nnc(-c2ccc(N3CCCCC3)c(NC(=O)c3ccccc3Cl)c2)c2ccccc12,"inconclusive: 35.5 µM [cytotoxic, partial curve, poor fit]",–
CCc1ccc(-n2nnc(-c3nc(-c4ccc(C)cc4)no3)c2N)cc1,inactive,–
COc1cc(OC)cc(C(=O)Nc2ccc3nc4n(c(=O)c3c2)CCCCC4)c1,"inconclusive: 39.8 µM [cytotoxic, single point]",–
CN1C(=O)c2ccccc2Sc2ccc(NC(=O)NCc3ccc(Cl)cc3)cc21,"inconclusive: 11.2 µM [cytotoxic, partial curve]",–
Cc1ccc(C)c(NC(=O)N2CCN3CCCCC3C2)c1 (stereo not given),"inconclusive: 1.41 µM [rising, full curve]",–
COc1ccc(F)cc1S(=O)(=O)Nc1ccc2c(c1)CCCN2C(=O)c1cccs1,"inconclusive: 31.6 µM [cytotoxic, single point]",–
CCn1c2c(c(=O)n3ncc(C(=O)N4CCN(c5ccc(C(C)=O)cc5)CC4)c13)CN(Cc1ccc(OC)cc1)CC2,"inconclusive: 15.8 µM [cytotoxic, partial curve, poor fit]",–
COc1ccccc1Nc1c2c(nc3ccc(NC(=O)c4ccccc4F)cc13)CCCC2,"inconclusive: 39.8 µM [cytotoxic, single point]",–

Compound,Potency,"activity change, negative = cytotoxicity"
CCOC(=O)c1ccc(NC(=O)C(C)Sc2nc(=O)cc(N)n2CCc2ccccc2)cc1 (stereo not given),"inconclusive: 17.8 µM [cytotoxic, partial curve, poor fit]",–
CCCCC(=O)Nc1ccc(OCc2cc(=O)n3c(C)csc3n2)cc1,"inconclusive: 17.8 µM [rising, partial curve, poor fit]",–
Cc1ccc(C)c(N2CCN(CCCNC(=O)c3cnn(-c4ccccc4)c3C3CCN(C(=O)OC(C)(C)C)CC3)CC2)c1,"inconclusive: 39.8 µM [cytotoxic, single point]",–
COc1cccc(Nc2nc3ccccc3c3nncn23)c1,"inconclusive: 10 µM [cytotoxic, partial curve, poor fit]",–
Cn1c(SCc2cc(=O)c3cc(Cl)ccc3[nH]2)nnc1-c1ccccc1,"inconclusive: 31.6 µM [cytotoxic, single point]",–
O=C(Cn1nc(-c2ccc(Cl)cc2)c2ccccc2c1=O)Nc1cccc(C(F)(F)F)c1,"inconclusive: 39.8 µM [cytotoxic, single point]",–
Cc1cc(C)cc(Nc2cc(C(=O)NCCCN(C)C3CCCCC3)c3ccccc3n2)c1,"inconclusive: 25.1 µM [cytotoxic, single point]",–
Cc1ccc(Cl)cc1N1CCN(C(=O)c2ccc(CS(=O)c3ccccc3)o2)CC1 (stereo not given),"inconclusive: 8.91 µM [cytotoxic, full curve, poor fit]",–
CCCCN(CC)C(=O)CCNS(=O)(=O)c1ccc2c(c1)c(=O)n(C)c(=O)n2C,"inconclusive: 4.47 µM [rising, partial curve, poor fit]",–
CC(C)CCn1c(Oc2ccccc2F)nc2c1c(=O)n(C)c(=O)n2C,"inconclusive: 39.8 µM [cytotoxic, single point]",–
CCc1ccccc1S(=O)(=O)Cc1ccc(C(=O)NCCc2ccc(C)cc2)o1,"inconclusive: 6.31 µM [rising, full curve, poor fit]",–
CCc1ccccc1NC(=O)CSc1ncc2c(n1)-c1cc(Cl)ccc1N(Cc1ccccc1)S2(=O)=O,"inconclusive: 14.1 µM [rising, partial curve]",–
CCOc1ccc(NC(=O)N(Cc2cn(CC)c3ccccc23)C2CCCCCC2)cc1,"inconclusive: 39.8 µM [cytotoxic, single point]",–
O=C(CSc1nc2c([nH]c3ccccc32)c(=O)n1-c1cccc(Cl)c1)c1ccccc1,inactive,–
COc1cc2nc(SCC(=O)Nc3ccccc3C)n3nc(CCn4c(C)nc5ccccc54)nc3c2cc1OC,"inconclusive: 39.8 µM [rising, single point]",–
CCn1cc(C(=O)N2CCN(c3cc(Cl)ccc3C)CC2)c(=O)c2cc(S(=O)(=O)N3CCCC3)ccc21,"inconclusive: 39.8 µM [cytotoxic, single point]",–
Cc1cccc2sc(N(Cc3cccnc3)C(=O)CCOc3ccccc3)nc12,"inconclusive: 39.8 µM [cytotoxic, single point]",–
CCCSc1ncc(Cl)c(C(=O)N(Cc2ccccc2)c2ccc(OC)cc2)n1,inactive,–
Cn1ccc2c(OCC(=O)Nc3ccc(OC(F)(F)F)cc3)cccc2c1=O,"inconclusive: 31.6 µM [cytotoxic, single point]",–
COc1ccc2c(c1)-c1nc(NC(=O)c3cccc(Br)c3)sc1CC2,"inconclusive: 0.316 µM [rising, partial curve]",–

# Reference: PubChem BioAssay AID1508642 (National Center for Advancing Translational Sciences (NCATS), 2021)
